# Laboratory results reported in PubChem BioAssay AID1347120 (National Center for Advancing Translational Sciences (NCATS), 2019).
# The campaign covered roughly 390,000 compounds. About 930 (0.24%) were called active. This list was built around the results that the source calls inconclusive (neither active nor inactive); the mix of calls is not that of the screen. Calls follow the shape of the dose curve; as a rule, active = well fitted activation curve with a large enough effect; inconclusive = small, poorly fitted or top-dose-only effect; inactive = no such curve, though single readings can be large or run the other way. Potencies beside an inconclusive call are fits to weak or partial responses and may not hold up.
# Experiment: qHTS for Suppressors of FUS Proteinopathy: Primary screen using FUS-linked yeast assay; also: nearly all actives have a fitted effect of over 55% in size
# Details: S. cerevisiae FUS-expressing, OD600, 24 h; Potency: growth rescue; series mostly up to 76.6 µM
# Procedure, shortened: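 Steps: raffinose overnight preculture; dilution to OD 0.005 in 2% galactose minimal medium; compound addition (concentration series); 24hr at 30C, 99% humidity; absorbance read at 600 nm.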
# Potency is read from the fitted curve at half-maximal effect; tags tell the direction and shape of the fitted curve.
row,SMILES,Potency
1,COc1ccc2sc(-c3ccc(N(C)C)cc3)c(C#CCO)c2c1,"inconclusive: 14.1 µM [activator, partial curve, poor fit]"
2,COC(=O)C1(Cc2cc(-c3ccc(OC)cc3OC)no2)CCN(C(=O)OC(C)(C)C)CC1,"inconclusive: 35.5 µM [activator, single point]"
3,NC(=O)C1CCN(c2nc(-c3ccc(OCc4ccccc4)cc3)cs2)CC1,"inconclusive: 3.98 µM [activator, full curve]"
4,O=C1N[C@@H](Cc2c[nH]c3ccccc23)COC(=O)[C@@H](Cc2ccc(F)cc2)C/C=C\C[C@H]1CC(=O)N(CCO)Cc1ccccc1,"inconclusive: 22.4 µM [activator, single point]"
5,COC(=O)c1ccccc1NC(=O)Cn1c(CCC(=O)O)ccc1-c1cccs1,"inconclusive: 31.6 µM [activator, partial curve, poor fit]"
6,COc1ccccc1CNS(=O)(=O)c1ccc2c(c1)NC(=O)C(C)C(=O)N2 (stereo unspecified),inactive
7,Cn1c(=O)oc2cc(S(=O)(=O)N3CCCC(C(=O)NCCc4ccc(Cl)cc4)C3)ccc21 (stereo unspecified),inactive
8,COc1ccc2nc(N3CCN(C(=O)C4COc5ccccc5O4)CC3)sc2c1 (stereo unspecified),inactive
9,Cc1ccc2occ(CC(=O)N(Cc3ccccc3Cl)C3CCS(=O)(=O)C3)c2c1 (stereo unspecified),"inconclusive: 50.1 µM [activator, single point]"
10,Cc1ccc(Cn2cc(CCC(=O)NC3CCC(C)CC3)c3ccccc32)cc1 (stereo unspecified),inactive
11,CC(=O)Nc1cccc(-c2cc(NC(C)=O)c3ncc(-c4cccc(C(F)(F)F)c4)n3c2)c1,"inconclusive: 50.1 µM [activator, single point]"
12,CC(C)(C)c1ccc(C(=O)Nc2ccccc2NC(=O)c2ccco2)cc1,"inconclusive: 50.1 µM [activator, single point]"
13,CCOc1ccc(C2=NNC(c3cccnc3)=Nc3ccc(OC)cc32)cc1,inactive
14,C=CCn1c(C)cc(C2=NNC(=NCC)SC2)c1C,"inconclusive: 35.5 µM [activator, partial curve]"
15,CN(C)S(=O)(=O)Oc1cccc(C(=O)Nc2ccccc2Cl)c1,inactive
16,Cc1ccc(S(=O)(=O)N2CCCC2C(=O)N2CCc3ccccc3C2)cc1C (stereo unspecified),inactive
17,CCOc1ccccc1CNC(=O)c1ccc(NC(=O)N2CC(C)Sc3ccccc32)cc1 (stereo unspecified),inactive
18,CCCN(CCC)C(=O)Cn1c(SCc2cccc(C(F)(F)F)c2)nc2cccnc21,inactive
19,CC(=O)c1ccc(OCCCC(=O)OCC(=O)Nc2ccc3[nH]c(=O)[nH]c3c2)cc1,"inconclusive: 17.8 µM [activator, partial curve, poor fit]"
20,COc1ccc(-c2cc(-c3c(O)c(OC)c4occc4c3OC)[nH]n2)cc1,"inconclusive: 12.6 µM [activator, partial curve, poor fit]"
21,COc1cccc(C2=CC(=O)C[C@H](c3ccc(Cl)cc3)C2)c1OC,"inconclusive: 31.6 µM [activator, single point]"

row,SMILES,Potency
1,O=C(Cn1c(=O)oc2cc(S(=O)(=O)N3CCCCCC3)ccc21)Nc1ccc(F)cc1F,inactive
2,CCC12C(=O)C(CC)(C(c3ccccc3)=C1c1ccccc1)[C@@H]1C(=O)N(c3ccccc3)C(=O)C12 (stereo partly specified),"inconclusive: 3.98 µM [activator, full curve, poor fit]"
3,Cc1ccc2nc(N(CCCN(C)C)C(=O)CN3C(=O)c4ccccc4C3=O)sc2c1,"inconclusive: 8.91 µM [activator, partial curve]"
4,Cc1cccc(N2CCN(c3ccc(C(=O)O)cc3NC(=O)c3cccc(Cl)c3)CC2C)c1 (stereo unspecified),"inconclusive: 28.2 µM [activator, single point]"
5,O=C(Nc1ccc2c(c1)OCCO2)c1ccc(Br)c(S(=O)(=O)N2CCOCC2)c1,"inconclusive: 31.6 µM [activator, single point]"
6,CCCN(C(=O)Cn1ncc2c1-c1ccccc1OC2)c1cccc(C)c1,"inconclusive: 25.1 µM [activator, partial curve, poor fit]"
7,OC[C@@H]1CN(Cc2ccc(F)cc2)C[C@H](n2cnc3c(N4CCN(c5ccccc5)CC4)ncnc32)O1,"inconclusive: 22.4 µM [activator, single point]"
8,O=C(Nc1ncccn1)c1cc(-c2cccc(Br)c2)nc2ccccc12,"inconclusive: 50.1 µM [activator, single point]"
9,CN(C)c1ccc(C2CC(=O)C=C(Nc3ccccc3N)C2)cc1 (stereo unspecified),"inconclusive: 7.08 µM [activator, full curve]"
10,C[C@H](c1ccccc1)N1C[C@@H](COCc2ccccc2)Oc2cc(N3CCC[C@H]3CO)ccc2S1(=O)=O,"inconclusive: 39.8 µM [activator, single point]"
11,CCCC1CCC2(CC1)CCC2OC(=O)Nc1c(OC)cccc1OC (stereo unspecified),inactive
12,C[C@]12c3[nH]c4ccc(Cl)cc4c3CCN1C(=O)[C@@H](CC(=O)NCc1cccc(C(F)(F)F)c1)C[C@@H]2C(=O)N1CCCCC1,"inconclusive: 20 µM [activator, partial curve, poor fit]"
13,O=C(c1ccc2c(c1)OCO2)N(Cc1ccco1)C1(C(=O)NC2CCCCC2)CCCCC1,"inconclusive: 22.4 µM [activator, partial curve, poor fit]"
14,COc1ccc(-c2cn3nc(N4CCCC(C(=O)Nc5ccccc5OC)C4)sc3n2)cc1 (stereo unspecified),"inconclusive: 50.1 µM [activator, single point]"
15,COc1ccc(NS(=O)(=O)c2c(F)cc(F)c(Cl)c2F)cc1S(=O)(=O)N1CCCCC1,"inconclusive: 35.5 µM [activator, single point]"
16,Cc1nn2c(=O)cc(COC(=O)c3ccc(NC(=O)c4cccc(Br)c4)cc3)nc2s1,inactive
17,CCOC(=O)c1nnn(-c2nonc2N)c1CSc1ccc(C)cc1,inactive
18,COc1cc2c(C(=O)N3CCN(c4cccc(C(F)(F)F)c4)CC3)cn(CC(C)C)c(=O)c2cc1OC,active: 22.4 µM
19,NNc1nc(-c2ccccc2)nc(-c2ccccc2)c1Br,inactive
20,COCCCn1c(-c2ccccc2Cl)n[nH]c1=S,inactive
21,CC(C)(C)OC(=O)N[C@@H](CCCCNC(=O)OCc1ccccc1)c1nnc([C@H](CCCCNC(=O)OCc2ccccc2)NC(=O)OC(C)(C)C)o1,"inconclusive: 5.01 µM [activator, full curve, poor fit]"

row,SMILES,Potency
1,C=CCC[C@@H](Cc1ccc(F)cc1)C(=O)OC[C@@H](Cc1c[nH]c2ccccc12)NC(=O)[C@H](CC=C)CC(=O)NCCO,"inconclusive: 28.2 µM [activator, single point]"
2,CN(C)c1ccc(NC(=S)NC23CC4CC(CC(C4)C2)C3)cc1,"inconclusive: 3.16 µM [activator, full curve, poor fit]"
3,Cc1ccc(OCc2cc(C(=O)N3CCC(C(O)C(C)C)CC3)no2)cc1C (stereo unspecified),"inconclusive: 20 µM [activator, partial curve]"
4,Cc1ccc(C2CCN(C(=S)Nc3cccc(C)c3)C2)cc1 (stereo unspecified),"inconclusive: 28.2 µM [activator, partial curve, poor fit]"
5,CCc1ccc(Nc2n[n+](-c3ccccc3)c(-c3ccc(N(CC)CC)cc3)s2)cc1,"inconclusive: 28.2 µM [activator, single point]"
6,Cc1ccc(C(=O)O)cc1NC1(c2ccccc2)C(=O)c2ccccc2C1=O,inactive
7,S=c1[nH]nc(-c2cccnc2)n1C1CCCCC1,inactive
8,CC1Cn2c(C(=O)NCc3cccc(Br)c3)cc3cccc(c32)S1 (stereo unspecified),inactive
9,O=C(C[C@H]1C/C=C\CC[C@H](Cc2ccc(F)cc2)C(=O)OC[C@H]2CCCN2C1=O)N[C@H](CO)Cc1ccccc1,"inconclusive: 17.8 µM [activator, single point]"
10,COc1ccc(C2=NS(=O)(=O)N(C)C(C(=O)NCc3cccs3)=C2)cc1OC,"inconclusive: 22.4 µM [activator, partial curve]"
11,CN(c1ccc(OCC(=O)Nc2nc3ccccc3s2)cc1)S(=O)(=O)c1ccccc1,"inconclusive: 3.55 µM [activator, partial curve, poor fit]"
12,Cc1ccc(Cn2ccsc2=NC(=O)COC(=O)c2ccc(NC(=O)CC#N)cc2)cc1,"inconclusive: 11.2 µM [activator, partial curve, poor fit]"
13,O=C(O)c1ccc2c(c1)C1C=CCC1C(c1cc3c(cc1Br)OCO3)N2 (stereo unspecified),inactive
14,COc1ccc(C2CC(c3ccccc3)=NN2C(=O)CN2N=NC3C(=O)N(c4cccc(F)c4)C(=O)C32)cc1 (stereo unspecified),"inconclusive: 31.6 µM [activator, single point]"
15,O=C(C[C@@H]1C/C=C\CC[C@@H](Cc2ccc(F)cc2)C(=O)OC[C@@H]2CCCN2C1=O)N[C@H](CO)Cc1ccccc1,"inconclusive: 14.1 µM [activator, partial curve, poor fit]"
16,CN(Cc1ccccc1)C(=O)c1cccc(NC(=O)Cc2cccc(NC(=O)C3CCN(C(=O)C4CCC4)CC3)c2)c1,"inconclusive: 20 µM [activator, single point]"
17,O=[N+]([O-])c1ccccc1/C=C/C=Nn1c(-c2ccc(F)cc2)n[nH]c1=S,"inconclusive: 10 µM [activator, full curve]"
18,CCc1nc2ccc(C(=O)Nc3cc(-c4ccccc4)ccc3OC)cn2c1N(C)Cc1nccs1,"inconclusive: 25.1 µM [activator, single point]"
19,CCn1c2ccc(Cl)cc2c2nc3ccccc3nc21,"inconclusive: 50.1 µM [activator, single point]"
